Reference: PubChem BioAssay (NCATS)
The shares of active, inactive and inconclusive entries below differ from those in the screen. For some of these results: Potencies of inconclusive entries are doubtful fits and often do not repeat. Activity calls are given as the source filed them. Unless noted, calls come from the whole dose curve; as a rule, active = well fitted curve in the direction sought with a large enough effect; inconclusive = small, poorly fitted or top-dose-only effect, or another doubt; inactive = no such curve, though single readings can be large; an effect the other way counts as inactive or inconclusive.

Assays:
[1] = qHTS of pediatric cancer cell lines to identify multiple opportunities for drug repurposing: Primary screen for SK-N-MC cells (AID 1347093); settings: SK-N-MC viability, CellTiter-Glo luminescence, 48 h; activity change, negative = cytotoxic: at 46 µM (top of the series); note: potency is the fitted concentration of half-maximal effect
Summary of the method: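 Metabolically active cells were quantified by ATP-dependent luminescence (CellTiter-Glo, 15 min at room temperature) following 48 h treatment. Cells had been plated at 500-1,000 per well and settled for 5 h beforehand.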

[2] = qHTS of pediatric cancer cell lines to identify multiple opportunities for drug repurposing: Primary screen for NB-EBc1 cells (AID 1347095); note: potency is the fitted concentration of half-maximal effect
Summary of the method: (§1)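 500-1,000 cells/well; 5 h pre-incubation 37 °C/5% CO2; compound pinned; 48 h; CellTiter-Glo, 15 min RT; luminescence. MIPE 11-pt from 0.78 nM, NPC 8-pt from 0.59 nM final. Bortezomib 2.3 µM final as positive control.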

[3] = qHTS of pediatric cancer cell lines to identify multiple opportunities for drug repurposing: Primary screen for SK-N-SH cells (AID 1347098); note: potency is the fitted concentration of half-maximal effect; nearly all actives have a fitted effect of over 65% in size
Summary of the method: (§2)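 Cells (500-1,000/well) rested 5 h, then received compounds for 48 h; metabolically active cells were measured by CellTiter-Glo luminescence. Final concentrations spanned up to 46 µM (MIPE, 11-point) or 0.59 nM-46 µM (NPC, 8-point) in primary screens, 11-point in follow-ups.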

[4] = qHTS of pediatric cancer cell lines to identify multiple opportunities for drug repurposing: Primary screen for OHS-50 cells (AID 1347103); settings: OHS-50 osteosarcoma viability, CellTiter-Glo luminescence, 48 h; activity change, negative = cytotoxic: at 57.3 µM (top of the series); note: potency is the fitted concentration of half-maximal effect; nearly all actives have a fitted effect of over 40% in size
Summary of the method: as §2

[5] = qHTS of pediatric cancer cell lines to identify multiple opportunities for drug repurposing: Primary screen for MG 63 (6-TG R) cells (AID 1347105); settings: MG 63 (6-TG R) viability, CellTiter-Glo, 48 h; activity change, negative = cytotoxic: at 46 µM (top of the series); note: potency is the fitted concentration of half-maximal effect; nearly all actives have a fitted effect of over 50% in size
Summary of the method: as §1

Furin (Homo sapiens) = Furin (Homo sapiens) (UniProt P09958); assay: Furin counterscreen qHTS for Zika virus inhibitors (AID 1347149);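 note: purified recombinant full-length human furin enzyme at 5 nM; fluorescence gain from furin cutting a BOC-RVRR-AMC peptide substrate over 15 min; top concentration of the series differs between compounds; nearly all actives have a fitted effect of over 70% in size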
Chain of UniProt P09958 (P09958 whole entry, looked up): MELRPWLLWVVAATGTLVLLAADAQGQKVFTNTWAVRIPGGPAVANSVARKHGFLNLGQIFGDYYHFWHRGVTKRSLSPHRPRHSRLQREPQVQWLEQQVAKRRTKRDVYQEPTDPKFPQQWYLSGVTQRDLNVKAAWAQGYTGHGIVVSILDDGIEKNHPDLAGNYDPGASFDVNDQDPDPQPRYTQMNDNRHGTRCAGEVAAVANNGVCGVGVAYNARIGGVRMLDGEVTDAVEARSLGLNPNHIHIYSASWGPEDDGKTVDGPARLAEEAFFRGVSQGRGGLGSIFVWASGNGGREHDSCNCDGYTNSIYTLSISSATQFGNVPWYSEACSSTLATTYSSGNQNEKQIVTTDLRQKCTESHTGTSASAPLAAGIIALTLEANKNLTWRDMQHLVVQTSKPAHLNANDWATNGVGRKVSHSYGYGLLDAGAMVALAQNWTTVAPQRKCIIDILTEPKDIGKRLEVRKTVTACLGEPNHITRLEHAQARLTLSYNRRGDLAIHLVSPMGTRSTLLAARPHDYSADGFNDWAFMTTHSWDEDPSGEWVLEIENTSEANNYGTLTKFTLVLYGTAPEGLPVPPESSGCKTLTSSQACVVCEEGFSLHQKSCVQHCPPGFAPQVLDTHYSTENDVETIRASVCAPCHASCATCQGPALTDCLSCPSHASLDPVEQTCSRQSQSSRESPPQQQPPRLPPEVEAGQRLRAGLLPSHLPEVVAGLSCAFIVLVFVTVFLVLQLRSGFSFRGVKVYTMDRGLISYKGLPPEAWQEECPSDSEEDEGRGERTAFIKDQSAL
Summary of the method: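 Counterscreen measures cleavage of 2 microM BOC-RVRR-AMC, below its ~15 microM Km, by 5 nM full-length human furin at pH 7.0 after a 15-min compound preincubation. Inhibition derives from the 15-min fluorescence increase at 37C.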

[6] = tested on: Zika virus NS2B-NS3 protease; assay: Primary screen GU AMC qHTS for Zika virus inhibitors (AID 1347154); note: potency is the fitted concentration of half-maximal effect; nearly all actives have a fitted effect of over 70% in size
Summary of the method: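 Unlinked Zika NS2B hydrophilic domain–NS3 protease complex at 25 nM in 10 mM Tris-HCl pH 8.0, 0.01% Tween 20, with an AMC peptide substrate. Fluorescence change (340/450 nm) over 15 min at room temperature, normalized to controls, fitted to 4-parameter Hill.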

[7] = ZIKV-mCherry secondary qHTS for Zika virus inhibitors (AID 1347158); note: potency is the fitted concentration of half-maximal effect
Summary of the method: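 Percent infection is the share of Hoechst-identified Vero nuclei with mCherry signal above 450 RFU (3 SD over negative controls). Cells were infected with recombinant ZIKV-mCherry at MOI 1 after compound addition and imaged 48–72 h later.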

[8] = tested on: Zika virus NS2B-NS3 protease (linked); assay: 384 well plate NINDS AMC confirmatory qHTS for Zika virus inhibitors (AID 1347163);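 note: linked protease at 5 30 or 60 nM final depending on run; fluorescence of AMC released from Ac-VKTGKR-AMC peptide cleaved by the protease; top concentration of the series differs between compounds; nearly all actives have a fitted effect of over 50% in size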
Summary of the method: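 Fluorescence at 355/460 nm was read after 25 minutes of cleavage of 30 microM Ac-VKTGKR-AMC at room temperature, in the dark. Before substrate addition, compounds (up to 1 mM final) sat ~15 minutes with 5, 30 or 60 nM linked protease. Signals were normalized to no-enzyme and no-inhibitor wells.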

[9] = target: Protein phosphatase 1D (Homo sapiens) (UniProt O15297); assay: RapidFire Mass Spectrometry qHTS Assay for Modulators of WT P53-Induced Phosphatase 1 (WIP1) (AID 1347424); note: potency is the fitted concentration of half-maximal effect
Chain of UniProt O15297 (O15297 whole entry, looked up): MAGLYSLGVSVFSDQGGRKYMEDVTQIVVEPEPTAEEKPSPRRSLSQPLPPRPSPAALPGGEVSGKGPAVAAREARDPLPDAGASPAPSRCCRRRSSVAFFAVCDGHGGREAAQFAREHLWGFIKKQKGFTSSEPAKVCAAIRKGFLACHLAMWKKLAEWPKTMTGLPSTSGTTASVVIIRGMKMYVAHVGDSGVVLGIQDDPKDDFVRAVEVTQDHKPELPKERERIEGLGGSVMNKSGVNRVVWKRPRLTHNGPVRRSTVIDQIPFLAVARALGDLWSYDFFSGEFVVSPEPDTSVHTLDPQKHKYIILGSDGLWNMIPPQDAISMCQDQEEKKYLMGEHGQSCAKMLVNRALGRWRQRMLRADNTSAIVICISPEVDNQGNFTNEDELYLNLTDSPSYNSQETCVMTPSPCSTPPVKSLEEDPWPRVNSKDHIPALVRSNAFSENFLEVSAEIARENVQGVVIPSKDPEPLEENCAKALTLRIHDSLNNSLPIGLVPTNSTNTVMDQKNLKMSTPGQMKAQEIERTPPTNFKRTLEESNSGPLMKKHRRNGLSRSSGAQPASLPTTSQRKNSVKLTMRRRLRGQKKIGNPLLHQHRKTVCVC
Summary of the method: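 RapidFire MS readout of dephosphorylated VEPPL-S-QETFS product, with 1 uM isotope-labelled peptide standard. Reaction: 10 nM WIP1, 2 uM phosphopeptide substrate, 5 min, room temperature, after 1 h compound preincubation; stopped with 0.5% formic acid.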

[10] = target: Protein phosphatase 1D (Homo sapiens) (UniProt O15297); assay: Rhodamine-PBP qHTS Assay for Modulators of WT P53-Induced Phosphatase 1 (WIP1) (AID 1347425); note: potency is the fitted concentration of half-maximal effect
Summary of the method: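 Steps: enzyme with Rh-PBP sensor and compounds, room-temperature incubation of 1 hr, baseline read, addition of VEPPL-pS-QETFS (10 uM final), kinetic fluorescence reads at 525/598 nm. Activity equals final minus baseline signal.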

[11] = Primary qHTS for small molecule stabilizers of the endoplasmic reticulum resident proteome: Secreted ER Calcium Modulated Protein (SERCaMP) assay (AID 1508630); settings: SH-SY5Y GLuc-SERCaMP (Gaussia luciferase released on ER calcium loss) secretion, thapsigargin, luminescence; activity change, negative = inhibition: at 38.4 µM (top of the series) unless noted
Summary of the method: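 The SH-SY5Y reporter protocol was run at 3 concentrations up to 38.3 uM (primary) or 11 concentrations (follow-up): 16 h compound, 100 nM thapsigargin for 4 h, then extracellular luciferase luminescence.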

[12] = A High-Content qHTS Against Drug Library for the Identification of Small Molecules that Inhibit DYT1 Early Onset Primary Dystonia-Associated Cell Pathology (AID 1645839; calls by dose curve; note: potency is the fitted concentration of half-maximal effect)
Summary of the method: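 Cells were seeded and left for 24 h, then dosed with compound alongside tetracycline induction of mutant EGFP-TorsinA. They were incubated for 48 h, fixed in 4% paraformaldehyde, permeabilized and imaged for mislocalization (%pathology) and cell count.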

[13] = target: Cytochrome P450 2D6 (Homo sapiens) (UniProt P10635); assay: Cytochrome P450 family 2 subfamily D member 6 (CYP2D6) small molecule antagonists: luciferase biochemical (cell-free) qHTS assay (AID 1645840; active = well fitted curve in the direction sought with a large enough effect in the repeat runs; inconclusive = weak or mixed curves; inactive = no such curve, though single readings can be large; an effect the other way counts as inactive or inconclusive; note: potency is the fitted concentration of half-maximal effect; nearly all actives have a fitted effect of over 55% in size)
Chain of UniProt P10635 (P10635 whole entry, looked up): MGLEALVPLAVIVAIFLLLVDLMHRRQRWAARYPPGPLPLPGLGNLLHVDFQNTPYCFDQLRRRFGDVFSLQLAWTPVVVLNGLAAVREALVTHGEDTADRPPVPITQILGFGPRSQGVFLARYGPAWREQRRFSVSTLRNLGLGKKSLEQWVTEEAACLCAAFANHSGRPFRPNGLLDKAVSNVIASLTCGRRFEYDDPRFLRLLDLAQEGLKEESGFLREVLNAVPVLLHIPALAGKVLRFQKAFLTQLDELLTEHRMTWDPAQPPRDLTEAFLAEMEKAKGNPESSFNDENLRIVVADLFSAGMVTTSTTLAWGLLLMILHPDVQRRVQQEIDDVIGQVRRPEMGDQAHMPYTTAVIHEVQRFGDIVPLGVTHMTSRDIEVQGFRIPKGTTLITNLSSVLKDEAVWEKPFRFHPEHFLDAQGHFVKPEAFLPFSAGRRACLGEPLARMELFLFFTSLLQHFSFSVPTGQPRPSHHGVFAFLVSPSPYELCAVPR
Summary of the method: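 P450-Glo CYP2D6 system: proluciferin substrate converted by enzyme to luciferin, read by luminescence proportional to activity. Enzyme-substrate mix with compound 10 min at room temperature, then NADPH regeneration 1 h before detection reagent.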

[14] = target: Cytochrome P450 2C9 (Homo sapiens) (UniProt P11712); assay: Cytochrome P450 family 2 subfamily C member 9 (CYP2C9) small molecule antagonists: luciferase biochemical (cell-free) qHTS assay (AID 1645842; active = well fitted curve in the direction sought with a large enough effect in the repeat runs; inconclusive = weak or mixed curves; inactive = no such curve, though single readings can be large; an effect the other way counts as inactive or inconclusive; note: potency is the fitted concentration of half-maximal effect; nearly all actives have a fitted effect of over 55% in size)
Chain of UniProt P11712 (P11712 whole entry, looked up): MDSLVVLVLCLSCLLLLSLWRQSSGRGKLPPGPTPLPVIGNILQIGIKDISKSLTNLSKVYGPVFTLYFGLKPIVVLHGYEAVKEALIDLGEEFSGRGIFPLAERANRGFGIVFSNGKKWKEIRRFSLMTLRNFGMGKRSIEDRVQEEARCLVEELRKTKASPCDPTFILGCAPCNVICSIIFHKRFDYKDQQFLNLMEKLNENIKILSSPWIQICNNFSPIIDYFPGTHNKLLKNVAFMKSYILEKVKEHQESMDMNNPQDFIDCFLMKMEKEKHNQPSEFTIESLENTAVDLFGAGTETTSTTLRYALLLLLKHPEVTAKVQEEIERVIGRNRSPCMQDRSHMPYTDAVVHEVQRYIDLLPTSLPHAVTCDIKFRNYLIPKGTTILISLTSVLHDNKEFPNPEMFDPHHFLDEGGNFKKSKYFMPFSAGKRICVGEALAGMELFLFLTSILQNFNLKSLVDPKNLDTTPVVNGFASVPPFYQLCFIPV
Summary of the method: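 P450-Glo CYP2C9 system: proluciferin substrate with enzyme in mix containing 0.4% BSA, 10 min at room temperature, then NADPH regeneration solution added and incubated 1 h at 37C. Detection reagent stopped reaction; luminescence read after 20 min as RLU.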

[15] = Primary qHTS for inhibitors of nuclear receptor binding SET domain protein 2 (NSD2) in an isogenic RCH-ACV NSD2 p.E1099K mutant (9B) (AID 1645876); settings: activity change, negative = viability loss: at 44.9 µM (top of the series) unless noted; note: potency is the fitted concentration of half-maximal effect; nearly all actives have a fitted effect of over 70% in size
[16] = Primary qHTS for inhibitors of nuclear receptor binding SET domain protein 2 (NSD2) in an RCH-ACV wild type WT cells (2C) (AID 1645877); settings: activity change, negative = cell killing: at 44.9 µM (top of the series) unless noted; note: nearly all actives have a fitted effect of over 70% in size; note: potency is the fitted concentration of half-maximal effect
[17] = target: Glutathione peroxidase 1 (Homo sapiens) (UniProt P07203); assay: Primary qHTS Assay for Inhibitors of Recombinant Selenoprotein Glutathione Peroxidase 1 (GPX1) (AID 1845191); note: potency is the fitted concentration of half-maximal effect; nearly all actives have a fitted effect of over 65% in size
Chain of UniProt P07203 (P07203 whole entry, looked up): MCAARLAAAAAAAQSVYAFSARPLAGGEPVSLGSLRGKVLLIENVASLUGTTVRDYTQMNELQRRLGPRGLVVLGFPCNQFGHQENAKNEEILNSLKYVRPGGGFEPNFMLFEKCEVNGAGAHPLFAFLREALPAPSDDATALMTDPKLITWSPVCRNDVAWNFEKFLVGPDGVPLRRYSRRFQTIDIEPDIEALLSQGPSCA
Summary of the method: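 GR-coupled readout: NADPH consumption tracked by fluorescence, ex 340/em 450 nm, at t=0 and after 15 min at RT. Final mix 10 nM GPX1, 1 mM GSH, 0.5 mM CHP, 0.5 mM NADPH, 100 nM GR, 0.01% BSA, following 30 min enzyme–compound preincubation.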

[18] = target: Phospholipid hydroperoxide glutathione peroxidase GPX4 (Homo sapiens) (UniProt P36969); assay: Primary qHTS Assay for Inhibitors of Recombinant Selenoprotein Glutathione Peroxidase 4 (GPX4) (AID 1845192); settings: activity change, negative = inhibition: at 50 µM (top of the series) unless noted; note: potency is the fitted concentration of half-maximal effect; nearly all actives have a fitted effect of over 65% in size
Chain of UniProt P36969 (P36969 whole entry, looked up): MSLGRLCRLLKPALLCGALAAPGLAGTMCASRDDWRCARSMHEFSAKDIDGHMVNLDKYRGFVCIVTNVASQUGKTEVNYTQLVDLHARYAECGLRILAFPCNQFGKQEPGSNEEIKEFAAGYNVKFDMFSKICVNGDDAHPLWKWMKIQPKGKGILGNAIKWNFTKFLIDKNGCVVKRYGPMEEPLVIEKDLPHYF
Summary of the method: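 Steps: GPX4 plus compound, 30 min RT; add GR/GSH/NADPH master mix; start with cumene hydroperoxide; read 340/450 nm fluorescence at 0 and 15 min. Finals were 200 nM GPX4, 1 mM GSH, 0.5 mM CHP, 0.5 mM NADPH, 100 nM GR.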

PA-1 = assay: Primary qHTS to identify gynecologic anti-cancer compounds using libraries of approved drugs and bioactive compounds (AID 1345084); settings: Gynecologic cancer cell panel viability, ATPlite luminescence, 48 h; series mostly up to 57.5 µM; note: nearly all actives have a fitted effect of over 55% in size
Summary of the method: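 Five-concentration response, 48 h; readout is ATP-driven luciferase luminescence.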

7G8 = assay: qHTS profiling for inhibitors of Plasmodium falciparum proliferation (AID 504749); note: nearly all actives have a fitted effect of over 60% in size; note: potency is the fitted concentration of half-maximal effect; settings: P. falciparum in erythrocytes, SYBR Green DNA, 72 h; series mostly up to 28.7 µM
Summary of the method: (§3)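 Each compound contacts P. falciparum-infected red blood cells for 72 h at 37 C; lysis buffer (Tris, EDTA, saponin, Triton X, SYBR Green I) is added and fluorescence measured next morning; values normalized to controls.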

ATS189 = assay: as above; settings: P. falciparum in erythrocytes, SYBR Green DNA, 72 h; series mostly up to 28.7 µM
Summary of the method: as §3

CP191 = assay: as above; settings: P. falciparum in erythrocytes, SYBR Green DNA, 72 h; series mostly up to 28.7 µM
Summary of the method: as §3

CP262 = assay: as above; settings: P. falciparum in erythrocytes, SYBR Green DNA, 72 h; series mostly up to 28.7 µM
Summary of the method: as §3

CP269 = assay: as above; settings: P. falciparum in erythrocytes, SYBR Green DNA, 72 h; series mostly up to 28.7 µM
Summary of the method: as §3

CP297 = assay: as above; settings: P. falciparum in erythrocytes, SYBR Green DNA, 72 h; series mostly up to 28.7 µM
Summary of the method: as §3

CP335 = assay: as above; settings: P. falciparum in erythrocytes, SYBR Green DNA, 72 h; series mostly up to 28.7 µM
Summary of the method: as §3

PAD = assay: as above; settings: P. falciparum in erythrocytes, SYBR Green DNA, 72 h; series mostly up to 28.7 µM
Summary of the method: as §3

[19] = tested on: Zika virus NS2B-NS3 protease (unlinked complex); assay: Primary screen GU Rhodamine qHTS for Zika virus inhibitors: Unlinked NS2B-NS3 protease assay (AID 1347159); settings: Recombinant ZIKV NS2B-NS3 protease, Rhodamine110 substrate fluorescence; activity change, negative = inhibition: at 107 µM (top of the series); note: potency is the fitted concentration of half-maximal effect; nearly all actives have a fitted effect of over 60% in size
Summary of the method: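 Unlinked NS2B/NS3, 25 nM; Rhod110 peptide, 1.5 microM; compounds, up to 114 microM. Reaction run 15 min at RT in 10 mM Tris-HCl pH 8.0, 0.01% Tween 20; kinetic fluorescence change fitted with a 4-parameter Hill model.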

[20] = Primary fluorescence-based thiol-reactive (MSTI) qHTS assay for identification of artifact compounds. (AID 1845221);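 note: potency is the fitted concentration of half-maximal effect; thiol-reactive compounds lower the probe fluorescence signal; nearly all actives have a fitted effect of over 65% in size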
Summary of the method: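 In PBS pH 7.4 with 2% DMSO, each compound met 4 uM MSTI for one hour at ambient temperature, shielded from light, before fluorescence detection.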

[21] = tested on: Zika virus NS2B-NS3 protease (linked construct); assay: Primary screen NINDS Rhodamine qHTS for Zika virus inhibitors (AID 1347160); note: potency is the fitted concentration of half-maximal effect; nearly all actives have a fitted effect of over 55% in size
Summary of the method: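 Single-chain NS2B-NS3 protease, 25 nM, pH 8.0; compounds preincubated 15 min. Activity: Rhodamine110 release from 1.5 microM substrate over 15 min, room temperature, data fitted to 4-parameter Hill.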

Measured: Potency
Tags give direction and shape of the fitted curve.

Oc1c(Cl)cc(Cl)cc1Sc1cc(Cl)cc(Cl)c1O
inconclusive: [1] 29.9 µM [cytotoxic, single point] | [2] 23.7 µM [cytotoxic, single point] | [3] 15.4 µM [cytotoxic, partial curve] | [4] 30.9 µM [cytotoxic, single point] | [5] 16.8 µM [cytotoxic, partial curve] | [6] 12.6 µM [inhibitor, partial curve] | [7] 14.1 µM [inhibitor, partial curve, poor fit] | [10] 10 µM [inhibitor, partial curve, poor fit] | [12] 35.5 µM [inhibitor, single point] | [13] 38.9 µM [inhibitor, single point] | [14] 24.5 µM [inhibitor, single point] | [15] 26.6 µM [inhibitor, single point] | [16] 33.5 µM [inhibitor, single point] | [17] 18 µM [inhibitor, partial curve, poor fit] | [18] 32.1 µM [inhibitor, single point] | CP297 = 0.0034 µM [activator, full curve, poor fit]
active: [9] 12.6 µM
inactive: Furin (Homo sapiens) | [8] | [11] | PA-1 | 7G8 | ATS189 | CP191 | CP262 | CP269 | CP335 | PAD

CC1=CC(=O)CC(C)(C)C1/C=C/C(C)OC1OC(COC2OCC(O)C(O)C2O)C(O)C(O)C1O (centres undefined)
inactive: [16] | PA-1
inconclusive: [19] 31.6 µM [inhibitor, partial curve, poor fit] | [20] 13 µM [inhibitor, partial curve]

C=C[C@H]1[C@H](O[C@@H]2O[C@H](CO)[C@@H](O)[C@H](O)[C@H]2O)OC=C2C(=O)OCC[C@]21O
inactive: PA-1
inconclusive: [21] 10 µM [inhibitor, single point]
